Results reported in PubChem BioAssay (NCATS).
This list was built around the results that the source calls inconclusive (neither active nor inactive); the mix of calls is not that of the screen. For some assays here: Where the call is inconclusive, the potency comes from a doubtful curve fit. Active and inactive are the calls of the source. Unless noted, calls come from the whole dose curve; as a rule, active = well fitted curve in the direction sought with a large enough effect; inconclusive = small, poorly fitted or top-dose-only effect, or another doubt; inactive = no such curve, though single readings can be large; an effect the other way counts as inactive or inconclusive.

Key:
[1] = P-glycoprotein substrates identified in KB-8-5-11 adenocarcinoma cell line, qHTS therapeutic library screen (AID 1346987); conditions: activity change, negative = cytotoxicity: at 44.5 µM (top of the series); note: nearly all actives have a fitted effect of over 65% in size
Summary of the method: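 Human cervical adenocarcinoma KB-8-5-11 cells, selected in colchicine to over-express P-gp and assayed without it, were exposed for 72 h to titrated compounds. An ATP-based luminescent viability signal gave AC50.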

[2] = test system: Zika virus NS2B-NS3 protease (unlinked complex); assay: Primary screen GU Rhodamine qHTS for Zika virus inhibitors: Unlinked NS2B-NS3 protease assay (AID 1347159); conditions: Recombinant ZIKV NS2B-NS3 protease, Rhodamine110 substrate fluorescence; series mostly up to 107 µM; note: potency is the fitted concentration of half-maximal effect; nearly all actives have a fitted effect of over 60% in size
Summary of the method: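 Buffer 10 mM Tris-HCl pH 8.0, 0.01% Tween 20. Unlinked protease 25 nM; compound preincubation 15 min, RT, protected from light. Substrate Rhod110, 1.5 microM; ~15% conversion in 15 min.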

[3] = test system: Zika virus NS2B-NS3 protease (linked construct); assay: Primary screen NINDS Rhodamine qHTS for Zika virus inhibitors (AID 1347160); note: potency is the fitted concentration of half-maximal effect; nearly all actives have a fitted effect of over 55% in size
Summary of the method: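 Aprotinin served as in-plate control. Conditions: 25 nM linked NS2B-NS3, pH 8.0 Tris buffer, titrated compounds, 15 min preincubation and 15 min reaction with 1.5 microM Rhod110 substrate at room temperature.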

[4] = Primary qHTS for inhibitors of nuclear receptor binding SET domain protein 2 (NSD2) in an RCH-ACV wild type WT cells (2C) (AID 1645877); conditions: activity change, negative = cell killing: at 44.9 µM (top of the series) unless noted; note: nearly all actives have a fitted effect of over 70% in size; note: potency is the fitted concentration of half-maximal effect
SKOV3 = assay: Primary qHTS to identify gynecologic anti-cancer compounds using libraries of approved drugs and bioactive compounds (AID 1345084); conditions: Gynecologic cancer cell panel viability, ATPlite luminescence, 48 h; series mostly up to 57.5 µM; note: nearly all actives have a fitted effect of over 55% in size; note: potency is the fitted concentration of half-maximal effect
Summary of the method: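 Cells, 1,000 per well, were allowed to settle for 16 h at 37 C before compound addition. Five concentrations were tested for 48 h, and viability was read by ATPlite luminescence after 15 min at room temperature.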

[5] = Primary qHTS for inhibitors of nuclear receptor binding SET domain protein 2 (NSD2) in an isogenic RCH-ACV NSD2 p.E1099K mutant (9B) (AID 1645876); conditions: activity change, negative = viability loss: at 44.9 µM (top of the series) unless noted; note: nearly all actives have a fitted effect of over 70% in size
[6] = test system: Zika virus NS2B-NS3 protease (unlinked complex); assay: Confirmatory screen GU AMC qHTS for Zika virus inhibitors (AID 1347153);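 note: enzyme at 25 nM with substrate at 10 µM below its Km of 18.3 µM; potency is the fitted concentration of half-maximal effect; nearly all actives have a fitted effect of over 70% in size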
Summary of the method: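 Noncovalent NS2B hydrophilic domain/NS3 protease complex (25 nM) in 10 mM Tris-HCl pH 8.0, 0.01% Tween 20 was preincubated 15 min at room temperature with compounds. Then 10 µM AMC substrate (Km 18.3 µM) was added; fluorescence was read over 15 min and fitted to a 4-parameter Hill equation.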

[7] = ZIKV-mCherry secondary qHTS for Zika virus inhibitors (AID 1347158); note: potency is the fitted concentration of half-maximal effect
Summary of the method: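 This orthogonal imaging screen measured ZIKV-mCherry infection of Vero cells exposed to compound, MOI 1, 48-72 h. Percent infection came from segmented nuclei scored mCherry-positive above 3 SD of negative controls.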

[8] = Confirmatory screen NINDS Rhodamine qHTS for Zika virus inhibitors (AID 1347161); note: potency is the fitted concentration of half-maximal effect; nearly all actives have a fitted effect of over 60% in size
Summary of the method: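 Purified linked NS2B-NS3 protease (NS2B hydrophilic domain joined to NS3 protease by flexible linker), 25 nM in 10 mM Tris-HCl pH 8.0, 0.01% Tween 20. Compounds titrated, 15 min preincubation at room temperature; 1.5 microM Rhodamine110 substrate, FITC fluorescence change over 15 min.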

[9] = Tertiary RLuc qRT-PCR qHTS assay for Zika virus inhibitors (AID 1347169); note: potency is the fitted concentration of half-maximal effect; nearly all actives have a fitted effect of over 55% in size
Summary of the method: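 Vero cells (1,000/well) infected with recombinant ZIKV-RLuc (Cambodian) at MOI 1-2 after compound addition, 48-72 hrs at 37 degrees C. Live-cell Renilla luciferase substrate added; luminescence read after 1-1.5 hrs.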

[10] = molecular target: Calcium and integrin-binding protein 1 (Homo sapiens) (UniProt Q99828); assay: Primary qHTS for Identification of Calcium Integrin Binding Protein 1 (CIB1) Competitor (AID 1508620); note: potency is the fitted concentration of half-maximal effect
UniProt Q99828, sequence (Q99828 whole entry, looked up): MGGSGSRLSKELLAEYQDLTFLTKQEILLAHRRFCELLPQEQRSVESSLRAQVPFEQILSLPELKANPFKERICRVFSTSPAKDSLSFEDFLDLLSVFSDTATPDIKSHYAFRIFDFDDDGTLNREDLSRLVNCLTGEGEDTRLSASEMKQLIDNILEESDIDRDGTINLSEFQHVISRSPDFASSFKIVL
Summary of the method: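 CIB1-GST (1 uM final) and compound incubated 15 min at room temperature before adding FITC-alphaIIb peptide tracer (100 nM final). Competition for binding read by fluorescence polarization (ex 480, em 540) after another 15 min at room temperature.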

[11] = molecular target: Cytochrome P450 2D6 (Homo sapiens) (UniProt P10635); assay: Cytochrome P450 family 2 subfamily D member 6 (CYP2D6) small molecule antagonists: luciferase biochemical (cell-free) qHTS assay (AID 1645840; active = well fitted curve in the direction sought with a large enough effect in the repeat runs; inconclusive = weak or mixed curves; inactive = no such curve, though single readings can be large; an effect the other way counts as inactive or inconclusive; note: potency is the fitted concentration of half-maximal effect; nearly all actives have a fitted effect of over 55% in size)
UniProt P10635, sequence (P10635 whole entry, looked up): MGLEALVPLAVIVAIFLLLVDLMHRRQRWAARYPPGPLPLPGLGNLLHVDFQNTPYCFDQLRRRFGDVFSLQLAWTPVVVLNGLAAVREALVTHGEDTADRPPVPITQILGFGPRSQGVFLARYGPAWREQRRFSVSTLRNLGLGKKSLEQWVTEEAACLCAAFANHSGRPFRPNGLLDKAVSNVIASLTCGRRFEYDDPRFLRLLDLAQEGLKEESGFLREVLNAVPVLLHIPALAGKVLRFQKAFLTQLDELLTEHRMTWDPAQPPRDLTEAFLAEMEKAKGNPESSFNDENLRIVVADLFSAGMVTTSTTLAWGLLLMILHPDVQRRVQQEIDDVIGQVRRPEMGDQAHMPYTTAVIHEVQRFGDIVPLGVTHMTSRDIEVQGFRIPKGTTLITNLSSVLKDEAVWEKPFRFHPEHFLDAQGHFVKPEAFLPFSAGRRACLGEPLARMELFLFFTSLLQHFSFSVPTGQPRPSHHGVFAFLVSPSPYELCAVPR
Summary of the method: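 P450-Glo CYP2D6 system: proluciferin substrate converted by enzyme to luciferin, read by luminescence proportional to activity. Enzyme-substrate mix with compound 10 min at room temperature, then NADPH regeneration 1 h before detection reagent.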

[12] = molecular target: Glutathione peroxidase 1 (Homo sapiens) (UniProt P07203); assay: Primary qHTS Assay for Inhibitors of Recombinant Selenoprotein Glutathione Peroxidase 1 (GPX1) (AID 1845191); note: potency is the fitted concentration of half-maximal effect; nearly all actives have a fitted effect of over 65% in size
UniProt P07203, sequence (P07203 whole entry, looked up): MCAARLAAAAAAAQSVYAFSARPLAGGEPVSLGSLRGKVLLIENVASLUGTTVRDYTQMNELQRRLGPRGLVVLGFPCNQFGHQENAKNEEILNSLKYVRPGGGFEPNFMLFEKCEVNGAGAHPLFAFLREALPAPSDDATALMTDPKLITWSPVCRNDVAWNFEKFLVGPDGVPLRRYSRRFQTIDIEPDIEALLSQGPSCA
Summary of the method: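 NADPH consumption tracked by fluorescence at 340/450 nm between t=0 and t=15 min, room temperature. Final mix: 10 nM GPX1, 100 nM glutathione reductase, 1 mM GSH, 0.5 mM NADPH, 0.5 mM cumene hydroperoxide, 0.01% BSA; 30 min compound–enzyme preincubation.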

[13] = Primary redox qHTS assay for identification of artifact compounds. (AID 1845223); note: potency is the fitted concentration of half-maximal effect
Summary of the method: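 Redox-cycling detection via DTT (250 uM final) oxidation coupled to Amplex Red (25 uM)/HRP (250 mU/mL) in HBSS. 15 min preincubation plus 30 min after DTT, room temperature. Ex/Em 525/598 nm; 4-parameter Hill fit against DMSO and 10 uM DA3003.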

[14] = molecular target: Cytochrome P450 2C9 (Homo sapiens) (UniProt P11712); assay: Cytochrome P450 family 2 subfamily C member 9 (CYP2C9) small molecule antagonists: luciferase biochemical (cell-free) qHTS assay (AID 1645842; active = well fitted curve in the direction sought with a large enough effect in the repeat runs; inconclusive = weak or mixed curves; inactive = no such curve, though single readings can be large; an effect the other way counts as inactive or inconclusive)
UniProt P11712, sequence (P11712 whole entry, looked up): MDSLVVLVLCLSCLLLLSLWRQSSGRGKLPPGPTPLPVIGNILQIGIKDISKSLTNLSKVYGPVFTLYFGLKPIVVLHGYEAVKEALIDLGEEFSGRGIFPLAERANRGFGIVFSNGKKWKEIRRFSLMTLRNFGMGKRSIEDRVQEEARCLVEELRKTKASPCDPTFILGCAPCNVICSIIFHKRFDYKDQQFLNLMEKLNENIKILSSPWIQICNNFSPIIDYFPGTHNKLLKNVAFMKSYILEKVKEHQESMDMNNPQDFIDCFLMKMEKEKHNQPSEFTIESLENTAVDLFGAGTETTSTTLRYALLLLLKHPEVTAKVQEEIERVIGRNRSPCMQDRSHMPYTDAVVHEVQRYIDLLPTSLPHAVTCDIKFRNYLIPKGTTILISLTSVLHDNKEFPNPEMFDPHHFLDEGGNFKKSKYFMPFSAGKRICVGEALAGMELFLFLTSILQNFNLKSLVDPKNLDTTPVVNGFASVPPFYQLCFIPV
Summary of the method: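 P450-Glo CYP2C9 system: proluciferin substrate with enzyme in mix containing 0.4% BSA, 10 min at room temperature, then NADPH regeneration solution added and incubated 1 h at 37C. Detection reagent stopped reaction; luminescence read after 20 min as RLU.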
Tags give direction and shape of the fitted curve.

For `C/C(=C\CC[C@H](CO)[C@@H]1CC[C@]2(C)C3=C(CC[C@@]12C)[C@@]1(C)CCC(=O)C(C)(C)C1CC3)C(=O)O` (some centres not stated), the Potency [1] was “inactive”, the Potency [2] was inconclusive: 7.94 µM [inhibitor, full curve] and the Potency [3] was inconclusive: 11.2 µM [inhibitor, partial curve]. The Potency [4] was inconclusive: 12.6 µM [inhibitor, single point] and the Potency (SKOV3) was “inactive”.
With `C=C1CCC2C(C)(C)CC(=O)CC2(C)C1CCC(C)CCOC(C)=O` (configuration not stated) the Potency [1] was “inactive”, the Potency [2] was inconclusive: 10 µM [inhibitor, full curve] and the Potency [3] was inconclusive: 28.2 µM [inhibitor, single point]. For the same compound, the Potency [5] was “inactive” and the Potency (SKOV3) was inconclusive: 28.2 µM [cytotoxic, single point].
For `COc1cc(Nc2ccc([N+](=O)[O-])cc2C(=O)O)cc2ccccc12`, the Potency [6] was inconclusive: 13.9 µM [inhibitor, full curve], the Potency [7] was inconclusive: 20 µM [inhibitor, partial curve, poor fit] and the Potency [2] was active: 2.24 µM. The Potency [8] was active: 2.21 µM, the Potency [9] was inconclusive: 20.8 µM [inhibitor, partial curve, poor fit] and the Potency [10] was inconclusive: 50.1 µM [inhibitor, partial curve, poor fit]. The Potency [11] was inconclusive: 26.8 µM [inhibitor, single point], the Potency [5] was “inactive” and the Potency [4] was “inactive”. The Potency [12] was inconclusive: 22.7 µM [inhibitor, partial curve, poor fit], the Potency [13] was inconclusive: 3.77 µM [activator, full curve] and the Potency (SKOV3) was inconclusive: 39.8 µM [rising, single point].
In the case of `Cc1c(Cc2ccc3ccccc3n2)c2cc(F)ccc2n1CC(=O)O`, the Potency [2] is reported as active: 35.5 µM, the Potency [3] is reported as inconclusive: 17.8 µM [inhibitor, single point] and the Potency [10] is reported as active: 44.7 µM. The Potency [14] was inconclusive: 37.9 µM [inhibitor, single point] and the Potency (SKOV3) was inconclusive: 0.891 µM [cytotoxic, single point].
With `O=C(O)CC1CCC(c2ccc(-c3ccc4nc(C(=O)NCc5ccc(OC(F)(F)F)cc5)cn4c3)cc2)CC1` (configuration not stated) the Potency [2] was active: 2.51 µM, the Potency [3] was inconclusive: 0.891 µM [inhibitor, full curve] and the Potency [14] was inconclusive: 23.9 µM [inhibitor, partial curve]. The Potency [13] was “inactive” and the Potency (SKOV3) was inconclusive: 2.51 µM [rising, partial curve, poor fit].
